Laboratory results from the supplement of paper PMC3334620.
Over roughly 33,000 sequences, “E-score (-0.5 to 0.5)” has its median near -0.053; the highest 2% begin near 0.37. This is one part of the list.

Biological target: Hap1 (UniProt P0CE41)
Test: PBM E-score (8-mer binding enrichment) (E-score (-0.5 to 0.5)); higher = stronger / more preferred TF binding; most listed sequences are background and not binding sites
Details: protein concentration: 200 nM; construct: GST-DNA-binding domain
Protocol: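 Universal 'all 10-mer' protein binding microarrays (Agilent AMADID 015681) probed with GST-tagged S. cerevisiae TFs (full-length or DBD) made by in vitro transcription/translation (PURExpress), about 100-200 nM. Bound TF was detected with fluorescent anti-GST. Each ungapped 8-mer (which stands for itself and its reverse complement) is scored by the PBM enrichment score (E-score), a modified Wilcoxon-Mann-Whitney statistic from -0.5 to +0.5, computed with the Universal PBM Analysis Suite. Scale: above 0.35 generally sequence-specific binding.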

Chain of UniProt P0CE41 (P0CE41 whole entry): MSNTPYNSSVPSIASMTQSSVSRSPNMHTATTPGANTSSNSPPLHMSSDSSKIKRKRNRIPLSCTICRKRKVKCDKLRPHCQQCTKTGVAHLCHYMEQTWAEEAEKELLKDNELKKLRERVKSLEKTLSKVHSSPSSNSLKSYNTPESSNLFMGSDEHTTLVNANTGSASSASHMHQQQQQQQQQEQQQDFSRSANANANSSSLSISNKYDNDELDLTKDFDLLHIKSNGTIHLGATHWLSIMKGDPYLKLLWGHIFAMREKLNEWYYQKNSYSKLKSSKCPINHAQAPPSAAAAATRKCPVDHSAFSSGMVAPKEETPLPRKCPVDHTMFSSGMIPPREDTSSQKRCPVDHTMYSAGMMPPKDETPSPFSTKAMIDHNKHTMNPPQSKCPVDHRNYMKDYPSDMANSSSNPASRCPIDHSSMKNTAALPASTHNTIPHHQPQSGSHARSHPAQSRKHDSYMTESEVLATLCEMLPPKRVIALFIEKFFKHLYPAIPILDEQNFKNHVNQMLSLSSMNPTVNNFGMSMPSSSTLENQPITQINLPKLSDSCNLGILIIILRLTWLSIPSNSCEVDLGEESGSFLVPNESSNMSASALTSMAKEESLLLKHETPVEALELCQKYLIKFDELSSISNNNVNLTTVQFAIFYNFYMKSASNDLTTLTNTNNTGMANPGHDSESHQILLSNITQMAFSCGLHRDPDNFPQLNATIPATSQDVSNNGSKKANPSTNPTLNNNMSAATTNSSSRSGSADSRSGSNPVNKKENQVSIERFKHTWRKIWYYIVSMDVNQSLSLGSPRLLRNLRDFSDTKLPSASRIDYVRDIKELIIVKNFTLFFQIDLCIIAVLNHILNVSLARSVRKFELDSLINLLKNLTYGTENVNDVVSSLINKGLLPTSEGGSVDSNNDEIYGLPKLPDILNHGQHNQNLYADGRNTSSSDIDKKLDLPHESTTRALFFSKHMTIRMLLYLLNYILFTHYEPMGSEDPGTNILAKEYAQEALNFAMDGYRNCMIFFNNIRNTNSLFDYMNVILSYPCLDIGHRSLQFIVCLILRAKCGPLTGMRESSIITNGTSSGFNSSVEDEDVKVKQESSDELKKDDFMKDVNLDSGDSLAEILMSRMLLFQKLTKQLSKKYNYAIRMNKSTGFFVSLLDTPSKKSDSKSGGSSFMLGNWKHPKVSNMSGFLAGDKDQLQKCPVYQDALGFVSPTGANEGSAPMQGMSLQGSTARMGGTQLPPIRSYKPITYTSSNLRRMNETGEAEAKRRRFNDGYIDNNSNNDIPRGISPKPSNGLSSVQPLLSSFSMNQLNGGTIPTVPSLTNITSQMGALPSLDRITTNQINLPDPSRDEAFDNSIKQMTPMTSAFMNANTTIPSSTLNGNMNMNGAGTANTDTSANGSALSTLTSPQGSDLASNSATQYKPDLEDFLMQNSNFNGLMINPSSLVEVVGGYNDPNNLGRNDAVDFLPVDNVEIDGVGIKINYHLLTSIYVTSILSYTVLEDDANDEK

Sequence	PBM E-score
ATACCTAA	-0.132
AGCGAGTA	0.122
CTGAGACC	-0.0632
GATCTCAA	0.026
ACTGGCAC	-0.11
AGTGCCAA	-0.254
GGATGGCC	-0.0478
AAACTAGC	-0.188
GGATAAAC	0.158
AAAGCACA	-0.15
GGTTACAA	-0.0255
AACGGGCG	0.246
AATACATA	-0.125
AACCTGCA	-0.109
AAGAAATC	-0.0581
CCCCGTGA	0.0342
CGCAGGTC	-0.0353
GAGAATAA	0.0733
ACAGCCAT	-0.132
AGTTCGAT	-0.0503
AATGGGGG	-0.0435
AAGAAAGC	-0.113

Sequence	PBM E-score
AACTCCGT	0.447
AGGCAACT	-0.057
TATCCTCA	0.0176
AAGGGACC	0.0134
AACGAAAT	0.119
CAACCGAA	0.183
ACAACACA	-0.305
GCGGGTAC	0.103
ACGGTAAG	0.067
AGAATGGC	-0.00255
TCATCGCA	-0.195
AGAGGCAG	-0.292
AATAGTGA	-0.138
AGCACGTG	-0.213
AGGGAGTG	-0.272
ACTAGCCC	0.0414
AACTGTAT	-0.0679
CCTCATAG	-0.199
CCAGGAAG	-0.204
GCTAGTAC	-0.0763
AATGCGTC	-0.131
CGGCTACC	0.193

Sequence	PBM E-score
CTGGCTCC	-0.189
AGAGCCTC	-0.206
CAGAGTAA	-0.0886
ACGGGAAG	-0.0758
GTTCCTTA	-0.0962
CAGAGATA	-0.182
AGTCCTGG	-0.193
AACTTTGA	-0.208
ACCCGTCG	-0.00468
AGGAAAGA	-0.275
CGCATCTC	0.0707
AGCACTCG	0.129
CAAAGATG	-0.0851
TCCTCGCA	-0.198
CCATCCTC	0.0314
GAAACACA	0.0173
GACCCATC	0.0237
CAGCGACA	-0.24
CGCGGAAA	0.337
CTGCTGCA	-0.238
CGCAGAAC	0.0877
CATTTCGG	0.28

Sequence	PBM E-score
ACGGATAA	0.282
CCACTTCC	-0.0712
AGTTTGAC	-0.0994
ATCAAGAC	-0.0493
CCACGCTA	-0.203
CAGTGTCA	-0.142
CTCTACGA	-0.3
TACATAGA	-0.0192
AGCCTCCG	0.192
GATTGGAA	-0.0798
GATACTAA	0.17
AAGTCATA	-0.137
AGAGGGGA	-0.0354
GTCTCACA	-0.0568
AACCGGCG	0.382
ATGGAAAG	-0.0424
GCAACCGC	-0.0271
ACGCAAGA	-0.0214
ACAGGTTG	-0.126
CCGTTTCA	0.166
CGCTCCCC	-0.0869
TCCTCAAA	-0.207

Sequence	PBM E-score
GGCCGACC	0.315
TATGCAAA	-0.357
AAATGCTA	-0.0409
AGAATATA	-0.141
AACGGGCA	0.0155
AATGCATC	-0.156
ACGATTCA	-0.052
AGGGTAAT	-0.012
CCTCGTCA	-0.161
ACTCAGTG	-0.193
CTAGTTGA	-0.229
CCCTGTAA	-0.102
AAAAAGCT	-0.177
CTCACTAC	-0.0522
AATTAGAG	-0.122
AGGTTAAA	-0.0926
CGAGGGCG	0.124
ACACAGAC	-0.131
ATATATGG	-0.00244
ACCATATC	0.0581
CAGCTTGA	-0.187
